# Laboratory results from PubChem BioAssay AID1745853 (National Center for Advancing Translational Sciences (NCATS), 2022).
# “And” between values parts separate entries of the source, which are not always exact repeats. Equal values may be shown once. The list shows a part of the results. These are further read-outs of the screen, such as a control signal, another cell line or another target. No call is given for them.
# What was measured:
# Assay in all cases: Primary Screen for Target Class Profiling of Small Molecule Inhibitors of Methyltransferases
# [1] = biological target: Glycine N-methyltransferase (Homo sapiens) (UniProt Q14749); settings: purified enzyme, MTase-Glo SAH luminescence; measured here: GNMT inhibition; at 40 µM; stronger effect = lower value
# In short: (§1)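 Each enzyme was reacted with SAM and its substrate, with compounds tested once at 40 uM; SAH formed was read by MTase-Glo luminescence.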
# [2] = biological target: Guanidinoacetate N-methyltransferase (Homo sapiens) (UniProt Q14353); settings: purified enzyme, MTase-Glo SAH luminescence; measured here: GAMT inhibition; at 40 µM; stronger effect = lower value
# In short: as §1
# [3] = biological target: Histamine N-methyltransferase (Homo sapiens) (UniProt P50135); settings: purified enzyme, MTase-Glo SAH luminescence; measured here: HNMT inhibition; at 40 µM; stronger effect = lower value
# In short: as §1
# [4] = biological target: Nicotinamide N-methyltransferase (Homo sapiens) (UniProt P40261); settings: purified enzyme, MTase-Glo SAH luminescence; measured here: NNMT inhibition; at 40 µM; stronger effect = lower value
# In short: as §1
# [5] = biological target: Phenylethanolamine N-methyltransferase (Homo sapiens) (UniProt P11086); settings: purified enzyme, MTase-Glo SAH luminescence; measured here: PNMT inhibition; at 40 µM; stronger effect = lower value
# In short: as §1
# % is set by controls: 0 for no effect and ±100 for the full control effect.
Compound,"activity change, negative = inhibition [1]","activity change, negative = inhibition [2]","activity change, negative = inhibition [3]","activity change, negative = inhibition [4]","activity change, negative = inhibition [5]"
CNC(=O)c1cc(Oc2ccc(NC(=O)Nc3ccc(Cl)c(C(F)(F)F)c3)c(F)c2)ccn1,-9.66%,-13.3%,-0.038%,-32%,-4.83%
Cc1nc(CNC(=O)[C@H]2CCC[C@@H](O)C2)nc2c1CCCC2,-1.59%,-1.8%,-0.703%,-0.926%,0.212%
CC(C)CN(CC(=O)N(CCCN1CCCC1=O)CC(N)=O)C(=O)CNCCc1ccccc1F,,2.71%,,-7.03%,5.65%
CC(=O)O[C@@H]1CC2C(C)(C)C(=O)C=C[C@]2(C)C2CC[C@]3(C)C(=CC(=O)[C@@H]3c3ccoc3)[C@@]21C (stereo not given in full),0%,2.38%,2.28%,-11.6%,-2.22%
O=C(NCC1CN(C(=O)NC2CCCCC2)CC12CCCCC2)C1CC1 (stereo not given),-2.68%,-1.37%,-0.192%,-7.63%,4.05%
CC(C)n1cc2cc(C(=O)Nc3ccc4c(c3)OCCO4)sc2c1,-9.63%,-3.78%,-2.88%,-7.02%,-14.1%
COc1cccc(CC(=O)N2CC[C@H](CO)[C@H](NC(=O)C3CC3)C2)c1,-1.5%,-3.94%,-0.21%,-4.45%,-5.75%
COC[C@]1(O)CCN(C(=O)CSCc2ccccc2C)CC1(C)C,-3.48%,-7.6%,-0.779%,-1.74%,-2.55%
CCCC1c2ccc(C)n2CCN1C(=O)Nc1ccccc1C (stereo not given),3.81%,0%,1.76%,5.57%,1.23%
Cn1cc2c3c(cccc31)CN(C(=O)c1ccccc1F)CC2,-18.2%,-11.5%,-6.15%,-71.8%,-17.8%
c1ccc(CNc2nc3c(-c4ccccc4)nnn3c3ccccc23)cc1,-2.82%,0%,2.42%,-2.58%,-7.84%
CCCOc1ccc(CN2C(=O)c3cc(C(C)C)nn3CC2(C)C(=O)NC2CCCCCC2)cc1 (stereo not given),-1.03%,4.65%,1.94%,-10.1%,0.846%
CC(C)c1ccc(CN2CCC(CNS(=O)(=O)C3CC3)C2)cc1 (stereo not given),-5.89%,-14.5%,-8.95%,-19.6%,-20%
Cc1ccc(Cn2c(=O)c3ccccc3n3c(=O)n(CC(=O)NC4CCCCC4)nc23)cc1,6.02%,0%,12.4%,6.29%,6.56%
O=C(NCCCN1CCc2ccccc2C1)C1CCc2ncc(-c3ccc(F)cc3)n2C1 (stereo not given),-8.36%,-2.04%,-66.3%,-13.9%,1.23%
NC(=O)CCN1CCc2onc(-c3ccccc3F)c2C1,-7.5%,-4.68%,-1.41%,-13.3%,-8.63%
CN1C(=O)COC[C@@H]1[C@H](O)c1ccc(NS(=O)(=O)c2ccc(F)cc2)cc1,-3.08%,-4.51%,-0.24%,-5.2%,-1.18%
C/C=C1\[C@H](O[C@@H]2O[C@H](CO)[C@@H](O)[C@H](O)[C@H]2O)OC=C(C(=O)OC)[C@H]1CC(=O)O,0%,-5.78%,-1.65%,-15.7%,0.902%
CCCC(CCC)C(=O)Nc1ccn([C@@H]2O[C@H](CO)[C@@H](O)C2(F)F)c(=O)n1,-2.66%,1.89%,4.29%,-12.4%,-1.12%
Cn1cc([C@@H](NC(=O)CCc2ccc(=O)[nH]n2)C2CC(O)C2)cn1 (stereo not given in full),-4.78%,-9.59%,-3.51%,-6.78%,-8.3%
CN(Cc1cnccn1)C(=O)C1CCCN(C2CCN(C(=O)C3CC3)CC2)C1 (stereo not given),-1.72%,-0.915%,1.82%,0.072%,2.15%

Compound,"activity change, negative = inhibition [1]","activity change, negative = inhibition [2]","activity change, negative = inhibition [3]","activity change, negative = inhibition [4]","activity change, negative = inhibition [5]"
Cc1cccc(C(=O)N2CCC(N3CC4CC(C3)[C@H]3CCCC(=O)N3C4)CC2)c1 (stereo not given in full),-9.22%,-2.97%,-3.79%,-13.5%,-0.243%
CCc1nc2c(c(-c3ccc(Cl)cc3)n1)CN([S+](C)(=O)[O-])CC2,-10%,-4.72%,-2.28%,-12.3%,-8.02%
O=C(Nc1ccccc1-c1cn2c(CN3CCNCC3)csc2n1)c1cnc2ccccc2n1,-57.2% and -2.52%,-23.1%,-67.5% and 0.818%,-41.7% and -32%,-44.8%
Cc1nc(C(=O)N2CCn3nc(Cc4ccccc4)cc3C2)cs1,-6.52%,-8.88%,-3.97%,-12.1%,-8.97%
CCOC(=O)c1cc2n(n1)CC(C)(C(=O)NC1CCCC1)N(c1ccccc1F)C2=O (stereo not given),4.97%,0%,4.12%,2.42%,4.31%
NC(=O)Nc1cc(-c2cccc(F)c2)sc1C(=O)NC1CCCNC1 (stereo not given),-1.12%,,-17%,,
O=C(NCc1ccc(Cl)cc1)c1ccc2c(=O)nc3c(-c4ccccc4F)n[nH]n3c2c1,-34.1%,1.64%,-3.11%,-3.15%,-2.44%
O=C(c1ccccn1)N1CCN(C(=O)N2CC3CC(C2)[C@H]2CCCC(=O)N2C3)CC1 (stereo not given in full),2.62%,-3.53%,2.8%,1.52%,-0.393%
COc1ccc2c(c1OC)C(=O)O[C@@H]2[C@H]1c2c(cc3c(c2OC)OCO3)CCN1C,-0.749%,11.9%,3.55%,-6.63%,6.42%
O=C(Cn1nc2nc(Nc3ccc(F)cc3)ccn2c1=O)Nc1ccc2c(c1)OCO2,2.6%,-2.35%,14%,-8.05%,1.5%
CC(C)c1ccc(NC(=O)c2cc3n(n2)CC(C)(C(=O)NC2CCCCC2)N(C)C3=O)cc1 (stereo not given),-0.256%,0.695%,0.562%,-4.77%,-1.94%
COc1cc(C2Oc3c(OC)cc(/C=C/C(=O)OC[C@H]4O[C@@H](OC(C)(C)C(=O)O)[C@H](O)[C@@H](O)[C@@H]4O)cc3C2CO)ccc1O (stereo not given in full),-1.15%,5.72%,1.95%,-7.57%,3.96%
Cc1ccc(Cc2nc(CCNS(=O)(=O)c3cc(C)c(C)cc3C)n[nH]2)cc1,-9.38%,-4.02%,-11.4%,-12.3%,-9.83%
CCOc1ccc(-c2cc3n(n2)CC(C)(C(=O)NC2CCCCC2)N(CCCOC(C)C)C3=O)cc1 (stereo not given),-0.606%,0%,2.67%,1.37%,0.848%
O=C(Nc1ccc(F)cc1)c1ccn2cncc2c1,-5.91%,-4.06%,-1.82%,-6.07%,-10.4%
Cc1ccc(C(=O)Nc2cccc(C(F)(F)F)c2)cc1-c1ccc2nc(NCCN3CCOCC3)ncc2c1,1.67%,5.86%,-11.1%,3.11%,11.1%
CN1CCN(C2CCC(n3cc(-c4ccc(Oc5ccccc5)cc4)c4c(N)ncnc43)CC2)CC1 (stereo not given),-8.98%,6.72%,-8.05%,-24.9%,-66.9%
Cc1ccc(S(=O)(=O)NCCN2CCN(S(=O)(=O)c3ccc(C)cc3)CC2)cc1,-1.85%,0%,7.26%,3.83%,1.2%
CC(C)CCN1C(=O)CSc2c(c3ccccc3n2C)C1C(=O)NCc1ccccc1 (stereo not given),11.2%,0%,5.96%,6.7%,7.79%
CCCc1cc(C(=O)N[C@@H]2CCOC[C@H]2OCCO)n(C)n1,-2.08%,-0.523%,-0.471%,-0.325%,-3.42%
CC1(C(=O)NC2CCCCC2)Cn2nc(-c3ccco3)cc2C(=O)N1CCc1ccccc1 (stereo not given),-4.97%,-15.2%,6.68%,-6.18%,-5.07%

Compound,"activity change, negative = inhibition [1]","activity change, negative = inhibition [2]","activity change, negative = inhibition [3]","activity change, negative = inhibition [4]","activity change, negative = inhibition [5]"
CN(Cc1ccc2nccnc2c1)C(=O)c1cc(COc2ccc(F)cc2F)on1,-9.44%,-8.92%,-3.12%,-35.5%,5.79%
C=CCC1(CO)CCCN(Cc2nc(C)cc(-c3ccccc3)n2)C1 (stereo not given),-36.4%,-1.5%,-2.15%,-8.27%,-3.21%
CCN(CC)c1nc2c(-c3ccc(C)cc3)nnn2c2ccccc12,-8.57%,1.21%,-4.49%,-4.85%,-15.1%
COc1ccccc1CNC(=O)C1(C)Cn2c(cc3ccccc32)C(=O)N1Cc1cccc(Br)c1 (stereo not given),-6.82%,2.33%,-0.413%,-6.23%,-3.48%
O=C(NCc1ccco1)C1COC2(CCN(C(=O)c3ccc(F)cc3)CC2)N1C(=O)c1ccco1 (stereo not given),-5.05%,-2.93%,0.462%,-2.94%,0.634%
CN(C)c1ccc(C(=O)N[C@H]2C[C@@H](c3nc(-c4ccc5ccccc5c4)no3)N(C)C2)cc1,-10.7%,-5.96%,-10%,-15.8%,5.75%
Cc1c(CN2CCCC23CCN(c2ccc(C(F)(F)F)cn2)CC3)cc(C#N)n1C,-2.09%,2.57%,-4.26%,-1.46%,-10.3%
CCOC(=O)CC(NS(=O)(=O)c1ccc2[nH]c3c(c2c1)CCCC3)c1ccccc1Cl (stereo not given),6.5%,4.57%,9.02%,-4.58%,6.35%
COc1cccc(Cn2nc3n(C(C)C)c(=O)c4ccc(C(=O)NC5CCCCC5)cc4n3c2=O)c1,-2.03%,4.85%,2.37%,-0.128%,1.74%
O=C(NC[C@H]1OC[C@@H](NCc2ncc[nH]2)[C@@H]1O)c1cccs1,0.238%,-9.17%,-0.304%,-2.27%,-0.086%
Cc1cc(O)cc(Oc2cc(C)c(C(=O)O)c(O)c2)c1,-13.4%,-4.27%,-16.7%,-23.4%,-3.4%
C/C(=C\CCC1(C)C2CCC(C2)C1(C)O)C(=O)O (stereo not given),-3.46%,0.206%,9.17%,-21.4%,0.554%
Cc1ccccc1CN1CCn2c(nn(CC3COc4ccccc4O3)c2=O)C1=O (stereo not given),-4.04%,-3.04%,-2.79%,-9.61%,-8.64%
CC1CC(C)CN(S(=O)(=O)c2ccc3c(c2)oc(=O)n3CC(=O)NCCCOC(C)C)C1 (stereo not given),-4.8%,-22.1%,9.69%,9.81%,-7.45%
C=CC(C)(C)C12C=C(OC)C(=O)N3C(C(C)C)C(=O)NC31N(OC)c1ccccc12 (stereo not given),-3.83%,3.63%,0.93%,-12.5%,-3.61%
Cn1c(=O)[nH]cc(CC(=O)NCc2cccnc2-n2ccnc2)c1=O,-4.49%,-14.4%,-6.1%,-12.1%,-9.45%
Cc1noc2c(NC3CCN(C)CC3)cc(-c3cccs3)nc12,-5.18%,-0.208%,-63.2%,-22.3%,-22.9%
Cc1cccc(C)c1OCc1cc(C(=O)N2CCC(c3ccncc3)CC2)no1,-9.62%,-13.1%,-5.1%,-37.7%,-16.8%
O=C1CC(c2nc(-c3cn4ccccc4n3)no2)CN1Cc1ccncc1 (stereo not given),-7.45%,-11.9%,-11.8%,-22.4%,-6.14%
